Hit rate of the full screen: of about 150,000 compounds, about 540 (0.36%) showed an effect of 50% or more. The list shows a part of the results.
System: Plasmodium falciparum
Assay: Primary screen in NF54 nanoGlo assay, in single point, at 2uM, 72h; a lower Z score goes with more inhibition
Type: functional, Erythrocyte
Conditions: timepoint 72 hour

Structure (SMILES) | % Inhibition | Z score
Cc1coc(C(=O)N2CC[C@H](NS(C)(=O)=O)C2)c1C | -8% | 1.3
Cn1nnnc1CCNC(=O)N1CCC[C@H](c2ccc(F)c(F)c2)C1 | -8% | 1.56
Cc1nn(C)c(C)c1C(=O)N1CCCC1 | -6% | 0.87
CCOC(=O)c1[nH]cc(C)c1C(F)(F)F | -4% | 0.41
CCN1CCC(C(=O)N2CC(C)(C)[C@@](O)(C3CC3)C2)CC1 | -1% | 0.22
CCOCCCNC(=O)CN1CCn2nc(-c3ccc(Cl)cc3)cc2C1=O | -11% | 1.46
C[C@@H](c1ccc2c(c1)OCCO2)N(C)C(=O)CCc1nnc(-c2ccc3c(c2)OCO3)o1 | -16% | 1.45
CCOC(=O)c1cnn(CCC#N)c1NS(=O)(=O)c1ccc2c(c1)OCCCO2 | 3% | -0.49
O=C(CN1CCN(C(=O)Nc2ccc(Br)cc2)CC1=O)NCc1ccccc1F | -14% | 1.82
N[C@H]1CN(C(=O)c2cccc3c2COCC3)CC12CCC2 | -2% | 0.38
COc1cccc(NC(=O)c2coc(NC(=O)c3ccsc3)n2)c1 | 0% | 0.02
COc1cc(C(=O)Nc2ccc3sc(NC(=O)c4cc(OC)c(OC)c(OC)c4)nc3n2)cc(OC)c1OC | 101% | -16.35
CC(C)[C@@H]1NC(=O)c2ccccc2N(CC(=O)Nc2nccs2)C1=O | -2% | 0.27
O=C(O)c1ccc(N2C[C@H](NC(=O)C3CCOCC3)[C@@H](C3CC3)C2)nc1 | -10% | 1.17
CN1C(=O)N(CC(=O)C(C)(C)c2ccccc2)S(=O)(=O)c2ccccc21 | -5% | 0.98
COCCN1C[C@@H](Cc2nc(C)c(C)c(C)c2C#N)CC1=O | 2% | -0.29
CCS(=O)(=O)N[C@@H](CN1CCCC1)C(C)(C)C | -5% | 0.85
O=C1CCC(CCC(=O)N[C@@H]2[C@H]3CCO[C@H]3[C@H]2Cc2ccccc2)=NN1 | 5% | -0.51
O=C(Nc1ccsc1C(=O)N[C@H]1CCCC[C@@H]1O)c1ccncc1 | 7% | -1.09
CC(C)Cc1ccc(CN2C[C@H](O)[C@@H](F)C2)s1 | -8% | 0.97
CC(C)Cc1cc(CN2CCN(CC3CC3)[C@@H]3CS(=O)(=O)C[C@@H]32)n[nH]1 | 1% | -0.12

Structure (SMILES) | % Inhibition | Z score
COC(=O)CN1CCC(c2ccnc3ccccc23)CC1 | -2% | 0.19
CC(C(=O)O)C(=O)NC1CCN(c2ccc(Cl)cc2Cl)C1 (stereo unspecified) | -15% | 1.8
CC[C@H](C)NC(=O)c1sc2nc(C)c(C(=O)Nc3ccc(C)cc3C)c(-c3cccs3)c2c1N | 17% | -2.61
Nc1nc2c(c(-c3ccccc3)n1)CN(C(=O)CCc1ccc3c(c1)OCO3)C2 | -14% | 1.88
Cc1ncsc1CCN(C)[C@@H](C)C(=O)Nc1nccs1 | 4% | -0.64
Cc1ccc(CNS(=O)(=O)c2ccc(-c3cnc(C4CC4)o3)cc2)o1 | -11% | 1.99
CN1CCC(NC(=O)c2nnc(-c3c(F)cccc3F)s2)CC1 | -6% | 0.83
CC(=O)[C@@H]1C[C@H](C(=O)NCC2CCCOC2)C1(C)C (stereo partly specified) | 0% | -0.02
CC(C)C[C@H]1C(=O)NCCN1S(=O)(=O)CCCN1CCOCC1 | -4% | 0.66
Cc1ccccc1-c1cn2c(C(=O)N(C)CCN3CCOCC3)csc2n1 | 14% | -1.79
O=C(NC[C@@]12CCC[C@H]1N(CC1CCCCC1)C(=O)CC2)c1ccno1 | -4% | 0.49
CCc1csc(CNC(=O)Nc2c(OC)nn(C)c2C)n1 | 3% | -0.59
CN1Cc2ccccc2N=C1c1ccccc1 | 5% | -0.71
O=C(OCc1nc(C2CC2)cs1)C1=CCCCCC1 | -7% | 0.88
O=C(NC1CC1)c1ccc2ncsc2c1 | -9% | 1.47
COc1ccc(-c2cn(CC(=O)NCc3cccc(Cl)c3)nc2N(C)C)cc1 | -13% | 1.52
CS(=O)(=O)N1CCC[C@@H]1CNC(=O)C1CC1c1ccc(F)cc1F (stereo partly specified) | -7% | 1.04
c1ccc2oc(CN3Cc4nc[nH]c4C[C@H]3c3nc(-c4cnccn4)no3)cc2c1 | -3% | 0.44
CC(C)(Cc1ccccc1)C(=O)N1CC(O)(CC#N)C1 | 1% | -0.15
COc1ccc([C@H]2[C@H](C(=O)NC3CCC3)CCC(=O)N2C)cc1 | 2% | -0.35
Cc1cc(OCc2ccccc2)ccc1-c1nc2c([nH]1)CCNC2 | 3% | -0.53

Structure (SMILES) | % Inhibition | Z score
CC(C)CC(=O)N1CCC2(CC1)C[C@@H](N(C(=O)c1ccccc1)C1CC1)CCO2 | 2% | -0.34
N=C(NS(=O)(=O)c1ccccc1)N1CCOCC1 | -7% | 0.91
CCn1nc(C)c(CCN(C)C(=O)Nc2ccc3c(c2)OCO3)c1C | -10% | 0.95
CCN(CC)C(=O)c1coc(CN2CCN(Cc3ccccc3)CC2)n1 | -8% | 1.17
CCc1ncc2c(n1)CN(C(=O)c1cc(OC)c(OC)c(OC)c1)C2 | -10% | 1.59
COc1cc([C@@H]2c3cccn3CCCN2Cc2ccc(OC)c(OC)c2OC)cc(OC)c1OC | -6% | 0.61
O=C(c1ccc(F)cc1)N1CC[C@H](n2nccn2)C1 | -13% | 1.97
CCc1nnc(CN2CCN(C)c3ccccc32)o1 | -4% | 0.63
CCC1([C@@](O)(C#CCN(Cc2ccccc2)C(C)C)c2ccccc2)CCCC1 | 0% | -0.02
CCc1nn(-c2ccccc2)c(NC(=O)N2CCOC[C@@H](O)C2)c1C | -9% | 0.87
COc1cc(C(=O)N2C[C@@H](C)Cc3cccc(F)c32)ncn1 | 20% | -2.52
COc1ccc(CNC(=O)N2C[C@H](C)OC3(CCCCC3)C2)cc1OC(F)F | 34% | -4.59
CC(=O)N1CCN(Cc2nc3cc(C)ccc3s2)CCC12CCOCC2 | -6% | 1.21
CCn1ncnc1CN1CC[C@]2(OC)CC[C@@H](Oc3ccccn3)C[C@H]12 | -3% | 0.61
CCc1c(NC[C@H]2CCS(=O)(=O)C2)cnn1CC(C)C | -2% | 0.42
CN(Cc1nccs1)[C@H]1CC12CCN(c1ncnc3[nH]ccc13)CC2 | -14% | 1.82
CN(c1ccc2nccnc2n1)C1CCC(CO)CC1 (stereo unspecified) | -12% | 1.37
CCC(NC(=O)N[C@@H]1C[C@H]1c1cccc(F)c1)c1c(C)noc1C (stereo partly specified) | 0% | 0.04
Cn1cnc2c1CCN(c1cccc(C#N)n1)C2 | -10% | 1.2
C[C@@H](c1nc(Cc2cccnc2)nn1CC(F)(F)F)N1CCOCC1 | -2% | 0.32
O=C1[C@H](c2cccnc2)N(Cc2ccco2)C(=O)CN1c1ccccc1 | -7% | 1.33

Structure (SMILES) | % Inhibition | Z score
O=C(COCC1CC1)Nc1cnccc1N1CCCCC1 | -11% | 1.75
CCN1CCN(Cc2cc3cc(C)ccc3nc2N2CCC[C@H](O)C2)CC1 | -5% | 1.01
CNC(=O)c1noc(CNC(=O)c2cnc(NC(C)C)nc2)n1 | 1% | -0.15
CCCc1noc(-c2ccnc(-n3ncc(C(=O)N4CCCC4)c3C)c2)n1 | -21% | 3.34
COc1ccc(CN2CC[C@](C)(O)C2)nn1 | -5% | 0.69
CCC1Oc2ccc(NC(=O)CC(C)(C)C)cc2CN(C(CC)c2ccccc2)C1=O (stereo unspecified) | -10% | 1.74
COCC1=CCN([C@@H](C)C(=O)N2CC(=O)Nc3ccccc32)CC1 | 3% | -0.45
CN(Cc1ccc2c(c1)OCO2)C(=O)c1ccoc1 | -2% | 0.42
CC(C)(C(=O)NS(=O)(=O)c1cccnc1)C1CCC1 | -14% | 2.23
COc1ccccc1CNC(=O)[C@@H]1CNC[C@H](C(=O)Nc2ccc3c(c2)CCC3)C1 | -14% | 1.61
C=CCN(C)C(=O)[C@@H](C)C1CC[C@@]2(C)Cc3sc(NCc4ccccc4)nc3[C@@H](C)[C@@H]2[C@H]1O (stereo partly specified) | -7% | 1.13
NC(=O)c1csc(C(=O)N[C@H]2C[C@H](c3ccc(F)cc3)C2)c1 | 7% | -0.91
CC(CNc1ccccn1)N1CCOCC1C (stereo unspecified) | 38% | -5.82
Cc1nn([C@@H](C)C(=O)NCCN2CCOCC2)c2ccccc12 | -6% | 0.88
CN1C[C@@]2(C)CN(C(=O)c3c[nH]c4ccccc34)C[C@@](C)(C1)C2O (stereo partly specified) | 0% | 0.03
COc1ccc(C(=O)Nc2nnc([C@H]3CC(=O)N(c4ccc(F)cc4)C3)o2)cc1OC | 7% | -1.06
CCOC(=O)N1CCN([C@H]2CCCN(C(=O)CC3CCCC3)C2)CC1 | -14% | 1.36
Cc1cc2nc3n(c(=O)c2[nH]1)CCCC3 | -13% | 1.43
COc1ccsc1S(=O)(=O)N1CC(CN2CCOCC2)C1 | 5% | -1.02
CC(C)NC(=O)Cc1noc([C@H]2CCO[C@@H]2c2ccnn2C(C)C)n1 | 11% | -1.19
